In patent US4416899A, “Antibiotic BMG162-aF2, a process for production thereof, and antitumor drug containing said new antibiotic as active ingredient” (priority 1980, dated 1983):
Converted amounts (≈) assume the structure as drawn.

Columns and labels:
Serratia marcescens = experiment: Antibacterial activity, agar dilution method (Table 2-1); format: cell-based; details: nutrient agar, 37° C., hydrochloride, read-out: Minimum inhibitory concentration
Escherichia coli NIHJ = experiment: as above; format: cell-based; details: nutrient agar, 37° C., hydrochloride, read-out: Minimum inhibitory concentration
Aspergillus niger = experiment: Antibacterial activity, agar dilution method (Table 2-3); format: cell-based; details: nutrient agar + 1% glucose, 27° C., hydrochloride, read-out: Minimum inhibitory concentration
Vibrio anguillarum NCBM6 = experiment: Antibacterial activity, agar dilution method (Table 2-2); details: NCBM6, read-out: Minimum inhibitory concentration
Salmonella enteritidis = experiment: Antibacterial activity, agar dilution method (Table 2-1); format: cell-based; details: Salmonella enterica, nutrient agar, 37° C., hydrochloride, read-out: Minimum inhibitory concentration
[1] = Stability / hydroscopicity; format: physicochemical; details: free base form
[2] = test system: Mycobacterium smegmatis ATCC 607; experiment: Antibacterial activity, agar dilution method (Table 2-1); format: cell-based; details: Mycolicibacterium smegmatis, ATCC607; nutrient agar, 37° C.; hydrochloride; read-out: Minimum inhibitory concentration
[3] = test system: Candida pseudotropicalis NI7494; experiment: Antibacterial activity, agar dilution method (Table 2-3); format: cell-based; details: Kluyveromyces marxianus, nutrient agar + 1% glucose, 27° C., hydrochloride, read-out: Minimum inhibitory concentration
[4] = test system: Pellicularia filamentosa sasakii; experiment: as above; format: cell-based; details: nutrient agar + 1% glucose, 27° C.; hydrochloride; read-out: Minimum inhibitory concentration
[5] = test system: Shigella dysenteriae JS11910; experiment: Antibacterial activity, agar dilution method (Table 2-1); format: cell-based; details: JS11910, read-out: Minimum inhibitory concentration
[6] = test system: Bacillus cereus ATCC 10702; experiment: as above; format: cell-based; details: ATCC10702, nutrient agar, 37° C., hydrochloride, read-out: Minimum inhibitory concentration
Erwinia aroideae = experiment: Antibacterial activity, agar dilution method (Table 2-2); details: Pectobacterium carotovorum, read-out: Minimum inhibitory concentration
Escherichia coli ML1629 = experiment: Antibacterial activity, agar dilution method (Table 2-1); format: cell-based; details: nutrient agar, 37° C., hydrochloride, read-out: Minimum inhibitory concentration
[7] = test system: Staphylococcus aureus FDA209P; experiment: as above; format: cell-based; details: nutrient agar, 37° C., hydrochloride, read-out: Minimum inhibitory concentration
Escherichia coli K-12 = experiment: as above; format: cell-based; details: K12, nutrient agar, 37° C., hydrochloride, read-out: Minimum inhibitory concentration
Candida albicans 3147 = experiment: Antibacterial activity, agar dilution method (Table 2-3); format: cell-based; details: nutrient agar + 1% glucose, 27° C., hydrochloride, read-out: Minimum inhibitory concentration
[8] = test system: Trichophyton asteroides 429; experiment: as above; format: cell-based; details: nutrient agar + 1% glucose, 27° C., hydrochloride, read-out: Minimum inhibitory concentration
Micrococcus flavus FDA16 = experiment: Antibacterial activity, agar dilution method (Table 2-1); format: cell-based; details: nutrient agar, 37° C., hydrochloride, read-out: Minimum inhibitory concentration
mouse leukemia L1210 = experiment: Effect on mouse leukemia L1210 (ip-ip system); details: hydrochloride
[9] = test system: Klebsiella pneumoniae PCI602; experiment: Antibacterial activity, agar dilution method (Table 2-1); format: cell-based; details: nutrient agar, 37° C., hydrochloride, read-out: Minimum inhibitory concentration
[10] = test system: Pseudomonas aeruginosa A3; experiment: as above; format: cell-based; details: nutrient agar, 37° C., hydrochloride, read-out: Minimum inhibitory concentration
Cryptococcus neogormans = experiment: Antibacterial activity, agar dilution method (Table 2-3); format: cell-based; details: nutrient agar + 1% glucose, 27° C., hydrochloride, read-out: Minimum inhibitory concentration
Pseudomonas fluorescens = experiment: Antibacterial activity, agar dilution method (Table 2-2); details: read-out: Minimum inhibitory concentration
[11] = test system: Corynebacterium bovis 1810; experiment: Antibacterial activity, agar dilution method (Table 2-1); format: cell-based; details: nutrient agar, 37° C., hydrochloride, read-out: Minimum inhibitory concentration
Proteus rettgeri GN311 = experiment: as above; format: cell-based; details: Providencia rettgeri, nutrient agar, 37° C., hydrochloride, read-out: Minimum inhibitory concentration
[12] = test system: Proteus mirabilis IFM OM-9; experiment: as above; format: cell-based; details: IFMOM9, nutrient agar, 37° C., hydrochloride, read-out: Minimum inhibitory concentration
Candida tropicalis F-1 = experiment: Antibacterial activity, agar dilution method (Table 2-3); format: cell-based; details: F1, nutrient agar + 1% glucose, 27° C., hydrochloride, read-out: Minimum inhibitory concentration
Proteus rettgeri GN466 = experiment: Antibacterial activity, agar dilution method (Table 2-1); format: cell-based; details: Providencia rettgeri, nutrient agar, 37° C., hydrochloride, read-out: Minimum inhibitory concentration
[13] = test system: Micrococcus lysodeikticus IFO3333; experiment: as above; format: cell-based; details: Micrococcus luteus, nutrient agar, 37° C., hydrochloride, read-out: Minimum inhibitory concentration

For `N=C(N)NCCCCC(O)CC(=O)NC(O)C(=O)NCCCCNCCCN` (centres unmarked) [BMG162-aF2], the MIC (Serratia marcescens) was greater than 100 µg/mL, the MIC (Escherichia coli NIHJ) was greater than 100 µg/mL and the MIC (Aspergillus niger) was 100 µg/mL. For the same molecule, the MIC (Vibrio anguillarum NCBM6) was 50 µg/mL (≈ 124 µM), the MIC (Salmonella enteritidis) was greater than 100 µg/mL and the stability [1] was “unstable in the form of the free base”. It also gave an MIC [2] greater than 100 µg/mL, an MIC [3] greater than 100 µg/mL and an MIC [4] greater than 100 µg/mL. For the same molecule, the MIC [5] was 100 µg/mL (≈ 248 µM), the MIC [6] was greater than 100 µg/mL and the MIC (Erwinia aroideae) was 50 µg/mL (≈ 124 µM). For the same molecule, the MIC (Escherichia coli ML1629) was greater than 100 µg/mL, the MIC [7] was 100 µg/mL (≈ 248 µM) and the MIC (Escherichia coli K-12) was 100 µg/mL (≈ 248 µM). The MIC (Candida albicans 3147) was greater than 100 µg/mL, the MIC [8] was greater than 100 µg/mL and the MIC (Micrococcus flavus FDA16) was 25 µg/mL (≈ 62 µM). The “effect on mouse leukemia L1210” value (mouse leukemia L1210) was “remarkable effects of cure and elongation of survival period”, the MIC [9] was greater than 100 µg/mL and the MIC [10] was greater than 100 µg/mL. The MIC (Cryptococcus neogormans) was greater than 100 µg/mL, the MIC (Pseudomonas fluorescens) was greater than 100 µg/mL and the MIC [11] was 50 µg/mL (≈ 124 µM). It also gave an MIC (Proteus rettgeri GN311) greater than 100 µg/mL, an MIC [12] greater than 100 µg/mL and an MIC (Candida tropicalis F-1) greater than 100 µg/mL. For the same molecule, the MIC (Proteus rettgeri GN466) was greater than 100 µg/mL and the MIC [13] was 100 µg/mL (≈ 248 µM).
